This is one part of the list.

For the assay, the system named is PfAP2-HC AP2 domain (GST-tagged). Description: gcPBM binding intensity (ln(normalized median fluorescence intensity)); higher = stronger DNA binding. The essentials: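 For binding intensity, the highest Masliner-normalised natural-log median intensity across replicate spots of either probe orientation was taken. Protein bound to the array was stained with Alexa488 anti-GST antibody and scanned at 488 nm. The protein, GST-tagged P. falciparum DNA-binding domains from E. coli at about 25 μg on average, had been applied for 1 h to an Agilent 4 × 180k array of primer-extended double-stranded 36-bp intergenic genomic probes and negative controls.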
Take “ACAACATAGAGGGGCACACACATATATACATAAAAA [CACACA_site6954]”: the “gcPBM binding intensity (ln)” value is 10.4.

As for “AAAAAAAAAAAAAACACACAAACGCTTTTTTTTTTT [CACACA_site686]”, the “gcPBM binding intensity (ln)” value was 9.71.

“TATGAAAATGTTCATACACACATAAAAAAAAAAAAA [CACACA_site3236]”: the “gcPBM binding intensity (ln)” value stood at 9.72.

Consider “TACACATACACATACACACGCATAGAAACATACGAA [CACACA_site2137]”, for which the “gcPBM binding intensity (ln)” value was determined as 10.

For the sequence “TGTTTGAATAACAAAAAAAAAAAAAAAATTAAAAAA [CACACA_negctrl_site1332]”, the “gcPBM binding intensity (ln)” value came out at 9.32.

For the sequence “ATTTTAAATGTTATGCGTACATATTAATCCTACTTA [XGTACX_site1344]”, the “gcPBM binding intensity (ln)” value worked out at 9.7.

As for “TTTTAAAAATCTATATGTACACAATACGTCTATAAA [XGTACX_site5787]”, the “gcPBM binding intensity (ln)” value was 9.54.

“TTTTAAATATGCAGATGTACATTATAATGTTTTATT [XGTACX_site2079]”: the “gcPBM binding intensity (ln)” value was found to be 9.7.

For the sequence “TACATATTTTTATATACACACAATAATTATTATAAA [CACACA_site1659]”, the “gcPBM binding intensity (ln)” value was determined as 9.6.

With “GATATGTACTAATACACACACATATAGATTTATATA [CACACA_site6610]”, the “gcPBM binding intensity (ln)” value worked out at 10.

Turning to “TATATTTATTATAACACACACATATATATATTATAT [CACACA_site1061]”, the “gcPBM binding intensity (ln)” value worked out at 10.

With “AAAATAAAAAATATAACACACAATAAATATATATAT [CACACA_site1926]”, the “gcPBM binding intensity (ln)” value came to 10.2.

“ATTTCCTGGCTACTGTGTACTGACCTCCAGACTGCT [XGTACX_site2005]”: the “gcPBM binding intensity (ln)” value worked out at 9.78.

Turning to “TTTTAACTTTTATATTGTACGTTGTTTATTTTATTT [XGTACX_site7504]”, the “gcPBM binding intensity (ln)” value came to 9.94.

Take “GAAAAAAAAAAAAAAAAAAAAAAATTCATTTTTTTT [XGTACX_negctrl_site54]”: the “gcPBM binding intensity (ln)” value was found to be 9.12.

For “ATAATCATTTGGATATTCACAATATTTAAAATTAAA [CACACA_negctrl_site909]”, the “gcPBM binding intensity (ln)” value was determined as 9.28.

As for “TATACAAAATAACTAGCACACATATGTATAAACATA [CACACA_site9236]”, the “gcPBM binding intensity (ln)” value worked out at 10.1.

Turning to “ATAAATAAAATTAGGTGTACTTTAATTAAAGAAAAT [XGTACX_site3319]”, the “gcPBM binding intensity (ln)” value worked out at 9.73.

For “TATACATATATAATATGTACATATATTTTTTTTTAA [XGTACX_site2938]”, the “gcPBM binding intensity (ln)” value came to 9.53.

Regarding “CATAAAAATATTTTCTGTACATATTCATATGACGTT [XGTACX_site3406]”, the “gcPBM binding intensity (ln)” value was determined as 9.78.

As for “ATAAATATTGGGTGCACACACATAATATATATATAT [CACACA_site2272]”, the “gcPBM binding intensity (ln)” value was 10.2.

As to “AGGTTCCCAAAATGCACACCAATGAAATTATTTATT [CACACA_site553]”, the “gcPBM binding intensity (ln)” value amounted to 9.57.

As for “ATATGTAATAATAAATGTACGAAACATTGAACGATG [XGTACX_site1266]”, the “gcPBM binding intensity (ln)” value worked out at 9.93.

As to “TTTTTATATATCACGTGTACATATTTATTTTTACTC [XGTACX_site8049]”, the “gcPBM binding intensity (ln)” value stood at 10.1.

The values are drawn from the supplement of paper PMC11417369.
